Source: the supplement of paper PMC7826260
Some of the results follow. The data describe in vitro nicking of single-stranded DNA by Rep domains for 1 h at 37 °C with 3 µM enzyme; only the middle of the 90-letter strands is printed. Uncut reads are compared with the no-enzyme pool on a log2 scale; uncut sequences lie near 0, cut ones below; no hit call is given. Reads are scaled to the total; where an enzyme cuts many sequences, the uncut ones exceed 0.

Experiments:
Assay in all cases: uncleaved DNA left, log2 of reads against the no-enzyme library (log2 ratio); higher = less cleavage (more negative = more Rep cleavage of the k-mer); sequences stand for … in CTCGTCCG…ACCGGAGA
[1] = system: T1, Rep nickase domain of Muscovy duck circovirus
T1 sequence (residues 1-111, tag not shown): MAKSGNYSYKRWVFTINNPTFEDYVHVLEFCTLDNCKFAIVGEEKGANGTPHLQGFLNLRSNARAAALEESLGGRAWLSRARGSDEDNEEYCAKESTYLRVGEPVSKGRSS
Method: (§1)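 A pool of 90-nt single-stranded DNAs with seven random bases just before the constant AC of the nick site (name = the seven bases) was cut by 3 µM recombinant His6-SUMO-tagged Rep nickase domain (300 nM DNA, 50 mM HEPES pH 8.0, 50 mM NaCl, 1 mM MnCl2, 1 h, 37 °C, three replicates). Uncut DNA was amplified and sequenced.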

[2] = system: T2, Rep nickase domain of banana bunchy top virus
T2 sequence (residues 1-94, tag not shown): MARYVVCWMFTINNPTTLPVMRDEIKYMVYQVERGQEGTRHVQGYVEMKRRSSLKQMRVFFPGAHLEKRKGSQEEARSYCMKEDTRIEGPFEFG
Method: as §1

[3] = system: T3, Rep nickase domain of cabbage leaf curl virus
T3 sequence (residues 1-116, tag not shown): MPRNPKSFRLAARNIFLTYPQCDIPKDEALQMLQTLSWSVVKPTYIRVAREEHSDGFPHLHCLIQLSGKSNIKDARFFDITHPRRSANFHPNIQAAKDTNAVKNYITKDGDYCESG
Method: as §1

[4] = system: T4, Rep nickase domain of chickpea chlorotic dwarf virus
T4 sequence (residues 1-124, tag not shown): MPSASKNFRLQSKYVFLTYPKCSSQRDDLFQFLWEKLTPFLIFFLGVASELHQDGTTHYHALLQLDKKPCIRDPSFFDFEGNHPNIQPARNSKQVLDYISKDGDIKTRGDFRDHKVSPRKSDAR
Method: as §1

[5] = system: T5, Rep nickase domain of faba bean necrotic yellows virus
T5 sequence (residues 1-98, tag not shown): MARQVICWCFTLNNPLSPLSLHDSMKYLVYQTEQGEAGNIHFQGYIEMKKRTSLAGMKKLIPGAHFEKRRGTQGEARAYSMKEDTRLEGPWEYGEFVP
Method: as §1

[6] = system: T6, Rep nickase domain of maize striate mosaic virus
T6 sequence (residues 1-117, tag not shown): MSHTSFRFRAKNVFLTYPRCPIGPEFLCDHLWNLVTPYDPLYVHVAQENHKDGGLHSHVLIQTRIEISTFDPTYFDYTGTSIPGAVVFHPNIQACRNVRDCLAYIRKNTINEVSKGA
Method: as §1

[7] = system: T7, Rep nickase domain of porcine circovirus 2
T7 sequence (residues 2-116, tag not shown): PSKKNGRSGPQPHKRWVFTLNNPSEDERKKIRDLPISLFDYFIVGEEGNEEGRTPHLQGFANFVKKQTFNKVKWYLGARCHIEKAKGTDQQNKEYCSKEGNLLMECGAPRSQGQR
Method: as §1

[8] = system: T8, Rep nickase domain of tomato yellow leaf curl virus
T8 sequence (residues 1-136, tag not shown): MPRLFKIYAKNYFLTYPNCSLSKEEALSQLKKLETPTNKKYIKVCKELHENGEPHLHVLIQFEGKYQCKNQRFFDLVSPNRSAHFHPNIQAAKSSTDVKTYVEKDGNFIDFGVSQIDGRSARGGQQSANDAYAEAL
Method: as §1

[9] = system: T9, Rep nickase domain of wheat dwarf virus
T9 sequence (residues 1-137, tag not shown): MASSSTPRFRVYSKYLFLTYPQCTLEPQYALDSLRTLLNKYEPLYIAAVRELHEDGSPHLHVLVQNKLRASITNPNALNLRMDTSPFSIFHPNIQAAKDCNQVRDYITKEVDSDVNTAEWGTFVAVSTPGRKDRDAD
Method: as §1

| Sequence | uncleaved DNA left (log2) [1] | uncleaved DNA left (log2) [2] | uncleaved DNA left (log2) [3] | uncleaved DNA left (log2) [4] | uncleaved DNA left (log2) [5] | uncleaved DNA left (log2) [6] | uncleaved DNA left (log2) [7] | uncleaved DNA left (log2) [8] | uncleaved DNA left (log2) [9] |
| --- | --- | --- | --- | --- | --- | --- | --- | --- | --- |
| AGACGTG | -0.017 | -0.0456 | -0.311 | -0.0348 | -0.0583 | -0.275 | 0.0339 | -0.104 | -0.244 |
| ACGATTC | 0.0439 | 0.194 | -0.0552 | -0.0156 | -0.0253 | -0.645 | 0.223 | 0.0894 | 0.0103 |
| TTGATAT | 0.0404 | -0.0796 | 0.313 | -0.0929 | -0.106 | 0.139 | -0.0139 | 0.0199 | 0.055 |
| AGCCTAT | -0.0419 | -0.0873 | 0.161 | 0.049 | -0.0552 | 0.307 | -0.194 | 0.0256 | 0.082 |
| AAAGCAA | 0.027 | 0.073 | -0.0115 | -0.102 | -0.0161 | -0.343 | 0.00568 | -0.00688 | 0.0536 |
| ACTGGGT | 0.00127 | -0.0215 | -0.172 | 0.313 | -0.0791 | 0.0583 | 0.0772 | -0.0534 | -0.0983 |
| GCCTTTC | -0.17 | -0.189 | 0.064 | 0.207 | -0.164 | -0.122 | -0.154 | -0.0933 | -0.267 |
| GAAACTA | 0.027 | 0.0617 | 0.221 | -0.669 | -0.114 | 0.912 | 0.0587 | 0.0621 | 0.131 |
| GCTCTGA | 0.00604 | 0.0673 | 0.164 | 0.534 | -0.0348 | 0.521 | 0.0286 | 0.0062 | 0.0726 |
| ATCTCCC | -0.138 | -0.0587 | -0.188 | -0.133 | -0.171 | 0.811 | -0.243 | -0.159 | -0.263 |
| CCAGCCA | -0.0448 | 0.0526 | 0.00573 | -0.991 | 0.111 | -0.642 | 0.0127 | -0.082 | 0.103 |
| CCCGTTA | -0.219 | 0.0168 | 0.0725 | -0.912 | -0.0757 | -0.362 | 0.00803 | -0.165 | -0.129 |
| TTATATG | 0.0239 | 0.0115 | -0.422 | -0.55 | 0.0609 | -1.13 | 0.224 | 0.0582 | -0.0102 |
| AGAGGCA | 0.0363 | 0.0487 | 0.0572 | 0.401 | 0.068 | 0.152 | 0.0423 | -0.0598 | 0.128 |
| TCTAGCC | -0.0146 | 0.0244 | -0.0102 | -0.418 | 0.0821 | -0.864 | 0.0416 | 0.0729 | -0.0106 |
| TATAGGA | 0.0712 | 0.0505 | 0.21 | 0.459 | 0.222 | -0.223 | 0.198 | 0.0668 | 0.048 |
| GCACTGC | 0.0678 | -0.102 | -0.213 | 0.0443 | -0.0806 | -0.476 | -0.0129 | -0.0393 | 0.0512 |
| TTGTGAG | 0.0628 | 0.000818 | -0.944 | -0.671 | -0.00573 | -1.28 | 0.179 | 0.0224 | -0.193 |
| GATGTTT | 0.0568 | -0.41 | 0.214 | -0.785 | 0.0519 | 0.917 | -0.382 | 0.111 | -0.0239 |
| TAAGATT | -0.159 | -0.265 | -4.09 | -2.83 | -0.0431 | -2.13 | -1.12 | -0.333 | -3.74 |
| GGACTGC | -0.0427 | 0.0292 | 0.663 | 1.63 | -0.049 | 2.05 | 0.183 | 0.071 | 0.109 |
| CCCGTTT | 0.318 | 0.0872 | 0.362 | -1.15 | 0.101 | 0.246 | 0.000743 | 0.0864 | 0.0886 |
| GAGGGGC | 0.0299 | -0.0307 | 0.664 | 1.18 | 0.0168 | 1.74 | 0.0581 | -0.063 | 0.0357 |
| ACTACAG | 0.00037 | 0.14 | -0.748 | -0.846 | 0.132 | -1.16 | 0.22 | 0.112 | 0.00421 |
| GACATTC | 0.105 | 0.0464 | 0.865 | 1.85 | 0.0857 | 2.06 | 0.187 | 0.0757 | 0.282 |
| ACGCCCT | -0.00593 | -0.0203 | -0.303 | -1.53 | -0.107 | -0.542 | -0.146 | -0.215 | -0.00789 |
| TCATCAG | 0.0784 | 0.0366 | -0.697 | -0.439 | 0.145 | -1.15 | 0.235 | 0.0817 | 0.0786 |
| CACTGGC | 0.0946 | -0.0231 | -0.297 | -0.234 | 0.033 | -0.826 | 0.0688 | 0.0505 | 0.00562 |
| GCCCCGA | -0.0692 | 0.0821 | 0.0219 | 0.202 | 0.00467 | -0.218 | 0.0902 | -0.0917 | -0.0313 |
| GTTGCAG | 0.0173 | 0.121 | -0.4 | -0.372 | 0.118 | -0.728 | 0.285 | 0.124 | 0.0864 |
